# From the supplement of paper PMC3334620
# In all, about 33,000 sequences were measured (“E-score (-0.5 to 0.5)”: median about -0.012, highest 2% from about 0.29 on). This is one part of the list.
# Target: T1, Ybr033w (UniProt P38073)
# T1 sequence: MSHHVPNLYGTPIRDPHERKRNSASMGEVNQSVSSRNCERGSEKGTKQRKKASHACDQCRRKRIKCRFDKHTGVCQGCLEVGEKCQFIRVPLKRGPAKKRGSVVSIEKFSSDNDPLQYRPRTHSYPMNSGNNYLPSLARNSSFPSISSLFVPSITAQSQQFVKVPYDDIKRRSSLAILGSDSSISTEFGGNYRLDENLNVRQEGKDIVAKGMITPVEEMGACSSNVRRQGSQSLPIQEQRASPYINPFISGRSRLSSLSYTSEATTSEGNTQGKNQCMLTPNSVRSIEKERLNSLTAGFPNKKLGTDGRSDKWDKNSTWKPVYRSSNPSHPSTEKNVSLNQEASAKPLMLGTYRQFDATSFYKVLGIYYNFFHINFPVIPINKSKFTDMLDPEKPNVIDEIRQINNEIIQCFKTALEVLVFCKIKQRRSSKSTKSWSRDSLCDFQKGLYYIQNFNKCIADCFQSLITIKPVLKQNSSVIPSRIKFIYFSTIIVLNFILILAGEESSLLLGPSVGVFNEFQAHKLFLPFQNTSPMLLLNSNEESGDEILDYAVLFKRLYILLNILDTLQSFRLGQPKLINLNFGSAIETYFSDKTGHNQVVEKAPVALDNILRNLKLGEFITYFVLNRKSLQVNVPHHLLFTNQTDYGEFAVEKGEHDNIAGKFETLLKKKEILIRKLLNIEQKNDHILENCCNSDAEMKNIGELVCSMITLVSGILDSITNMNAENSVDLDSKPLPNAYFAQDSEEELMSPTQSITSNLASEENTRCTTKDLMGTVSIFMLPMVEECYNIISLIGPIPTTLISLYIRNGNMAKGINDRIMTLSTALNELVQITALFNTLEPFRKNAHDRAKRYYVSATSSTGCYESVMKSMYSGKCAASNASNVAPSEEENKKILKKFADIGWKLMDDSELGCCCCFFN
# Assay: PBM E-score (8-mer binding enrichment) (E-score (-0.5 to 0.5)); higher = stronger / more preferred TF binding; most listed sequences are background and not binding sites
# Conditions: protein concentration: 200 nM; construct: GST-full length
# Method in brief: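 For each ungapped eight-base word taken together with its reverse complement, the Universal PBM Analysis Suite assigned an E-score. Binding data came from GST-tagged yeast transcription factors, applied at about 100-200 nM, on universal all-10-mer Agilent arrays made double-stranded by primer extension. Fluorescent anti-GST marked bound protein, and scans were normalised with masliner.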
row,Sequence,PBM E-score
1,ACTGCCGG,-0.0435
2,ATCGCCTC,0.027
3,ATAAACCA,0.138
4,ATATTAAC,0.301
5,ATAACAAC,0.0879
6,GCTCGTTA,-0.233
7,CAAACGTC,-0.14
8,CCTAACTC,-0.22
9,CTCGGACA,-0.0707
10,CTCTGCCA,-0.114
11,GCATACCC,-0.0451
12,ATCTGATA,-0.0208
13,ATTGTCTA,0.144
14,GCAATCGC,-0.0818
15,AATGGCTC,0.00373
16,CGTAGGCA,-0.156
17,CTAATTGA,0.213
18,CCACAATA,0.0365
19,AGATTGAA,0.213
20,AACATACC,0.109
21,TCTCCGAA,0.075
22,ACAGGATA,0.0292
23,TCATACCA,0.167
24,GCGGTAAA,0.133
25,ACGCTCCA,0.0968

row,Sequence,PBM E-score
1,ATACCTCC,-0.274
2,ACCTCCCC,-0.0928
3,CCCGCCCG,-0.013
4,ATCTCAAA,0.188
5,GCGACAAA,-0.0629
6,ACACTGAA,0.178
7,CAAGACTA,0.0818
8,CATGGGAG,-0.257
9,TGTGGCAA,0.0123
10,GACTCCAA,-0.0418
11,GAACTGCA,0.0587
12,GATATCAA,0.161
13,GCTACAGA,-0.0725
14,CCTGACCA,0.108
15,CGCGGTAG,-0.0608
16,CAGACTTA,-0.189
17,GACGCCAA,-0.174
18,AACGACAG,-0.121
19,GAAGAGTA,0.0636
20,CGGGAACA,0.331
21,CCAAGCTA,-0.223
22,AAATAGAG,0.247
23,CGTTCTGC,0.0161
24,CTCGGCAC,-0.23
25,ACGTGTGG,-0.0918

row,Sequence,PBM E-score
1,AAGGCTAC,-0.0545
2,AGTTGTGG,0.143
3,ACCAAGCC,-0.0301
4,CCCAGAAA,0.0252
5,TAGCCGGA,-0.0689
6,GGGCAAAC,-0.188
7,CCAACATC,-0.0802
8,ACACGTCT,0.0647
9,AAACGAGC,0.0801
10,CTACACCA,0.013
11,CTTGTACA,0.124
12,ATTCACCA,0.201
13,AGTTTAAT,0.149
14,AATCTAAG,0.208
15,TCTTGGCA,0.171
16,AAACCGCT,0.069
17,CCTGAGCC,-0.22
18,ACATGGTC,-0.129
19,GATCAAGC,-0.0651
20,AGGGGTGG,-0.226
21,CAAGACTG,-0.0465
22,CCGCCAAG,-0.25
23,GAGCACCA,-0.0524
24,CACACGTG,-0.0461
25,CATCCGTA,0.148

row,Sequence,PBM E-score
1,ACAAGACG,-0.208
2,CGCCTGGC,-0.271
3,TGTCGAAA,0.114
4,GGCAATAA,-0.0439
5,CTCCTGCC,-0.0472
6,AGAAACTG,0.0984
7,CGAACTGC,0.0659
8,CGACTTAA,0.115
9,ATCTAGTG,0.149
10,AGTAAGGG,0.00036
11,GGTGGAGA,-0.293
12,CAATAGTG,0.0349
13,CAGATTGA,-0.0434
14,CTGGTGAC,-0.145
15,GGAAAGCA,-0.009
16,GGCTCGCA,-0.142
17,ACCCTGCC,-0.3
18,GCACAATA,-0.08
19,ATTGGAAG,0.0941
20,ATGTATCC,-0.03
21,GATGCGAA,0.16
22,CCGATTTA,0.183
23,ACCTAAGA,-0.00531
24,AGGAATAA,0.364
25,ATACCATG,-0.0754

row,Sequence,PBM E-score
1,ACAAATCT,0.234
2,TCTAGGAA,0.102
3,GAGAAAGA,0.0415
4,GACTGAAA,0.0609
5,AGCCATCA,0.0789
6,CGAAAACC,0.142
7,CGTTAACC,0.0472
8,AATATTAT,0.335
9,ACATTCGG,-0.0625
10,GAACAGCC,-0.0732
11,CAGGTAGG,-0.052
12,AGAGTCAC,-0.0357
13,ACTAGTAA,0.213
14,CACTTGGA,0.159
15,AGGCCCTA,-0.0825
16,AGATACTA,0.103
17,ATCCAGGA,0.119
18,CACTACGC,-0.246
19,GAGCAAAA,0.0833
20,CTCCCTCC,-0.231
21,CAACTGCG,-0.101
22,TGACTACA,0.0719
23,AACCATAC,0.0359
24,CTGCCATA,-0.0461
25,AGCGCTAC,-0.153

row,Sequence,PBM E-score
1,AAAGAGGG,-0.0041
2,TGGATCCA,-0.0233
3,GGCGAAAC,-0.00592
4,GTAGATGA,0.113
5,AGTGTTAT,0.165
6,AATCTTAG,0.119
7,ATTTGCGC,0.0226
8,GATCCCAC,0.0929
9,ATGATCCA,0.162
10,ACTACGTA,0.0636
11,CCCATCTA,-0.0571
12,ACACCATA,0.145
13,GCGTTTGA,-0.0016
14,AATATTGT,0.298
15,AGCATATC,0.0997
16,TAACCATA,0.104
17,AATCTAAC,0.251
18,AATTCGCC,0.0309
19,GCGGGCAA,-0.112
20,ATAGCTGC,0.223
21,CCCGAGAG,-0.217
22,CCCAACTA,0.0302
23,CTACGTGA,-0.0199
24,CTAAGTCA,0.0426
25,GGTTGGCA,-0.0669

row,Sequence,PBM E-score
1,CATTCGTC,0.00034
2,AAGCCTGA,-0.0431
3,GTACTAGA,0.168
4,ACTTACAG,0.0407
5,CGCGGTCA,-0.167
6,ACATCGGG,-0.0939
7,GAACCTAC,0.0534
8,ACTTAGTA,0.137
9,GCCGCAAC,-0.0949
10,ATACAGAG,-0.0515
11,ATCAACGC,-0.00761
12,GGTGCCCA,-0.316
13,AGTACGTG,-0.00447
14,AAAATCCC,0.17
15,GCTGACAA,-0.0525
16,CTTGCAAC,0.111
17,GATAGCGA,-0.0657
18,CCTGTGCC,-0.18
19,CTGGTCCA,-0.17
20,ATACCGCA,-0.0369
21,CTCAGGCA,-0.0691
22,AGAAGAAG,-0.0313
